Data as given in publication PMC3572064.
Read-outs that look alike come from different tables or passages of the source. Results are given in words; binding and its absence hold for the method and conditions named. For part of these data: Binding seen in cells or lysates may run through a third protein. Some binding calls cover weakened binding; strength is not graded here. For part of these data: Where a sequence is shown, tags or fusion partners need not be part of it. One block for each molecule: values may come before it.

Protein sequences, listed by entry. Tags and fused reporters are not part of them. Lines headed by an entry give the natural chain unless they say otherwise; changes in a name come on top.
UniProt P60766: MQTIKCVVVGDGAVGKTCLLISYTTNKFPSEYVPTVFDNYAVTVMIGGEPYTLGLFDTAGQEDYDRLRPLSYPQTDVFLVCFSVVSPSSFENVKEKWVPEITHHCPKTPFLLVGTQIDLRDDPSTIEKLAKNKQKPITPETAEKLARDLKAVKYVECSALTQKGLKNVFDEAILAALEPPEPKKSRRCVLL
UniProt P70182: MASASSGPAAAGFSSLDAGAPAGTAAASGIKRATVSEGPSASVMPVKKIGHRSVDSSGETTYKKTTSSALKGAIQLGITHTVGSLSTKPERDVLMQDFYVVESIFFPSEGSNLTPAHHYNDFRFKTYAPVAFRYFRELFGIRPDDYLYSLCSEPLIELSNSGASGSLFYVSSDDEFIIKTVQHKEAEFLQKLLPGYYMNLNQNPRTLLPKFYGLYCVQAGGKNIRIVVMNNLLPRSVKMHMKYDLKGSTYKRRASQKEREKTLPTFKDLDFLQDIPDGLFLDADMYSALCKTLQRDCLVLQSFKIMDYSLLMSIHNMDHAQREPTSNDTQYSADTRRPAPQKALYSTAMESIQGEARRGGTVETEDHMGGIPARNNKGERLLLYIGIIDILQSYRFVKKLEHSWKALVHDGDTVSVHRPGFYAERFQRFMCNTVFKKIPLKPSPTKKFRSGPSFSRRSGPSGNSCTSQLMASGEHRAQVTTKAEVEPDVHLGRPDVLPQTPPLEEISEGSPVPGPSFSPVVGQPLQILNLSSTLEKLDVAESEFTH
UniProt P84096: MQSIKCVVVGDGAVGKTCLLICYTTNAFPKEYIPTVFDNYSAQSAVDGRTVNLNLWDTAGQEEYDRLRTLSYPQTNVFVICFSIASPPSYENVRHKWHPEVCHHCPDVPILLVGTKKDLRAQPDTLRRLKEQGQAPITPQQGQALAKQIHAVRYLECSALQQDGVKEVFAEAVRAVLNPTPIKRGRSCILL
UniProt Q62048: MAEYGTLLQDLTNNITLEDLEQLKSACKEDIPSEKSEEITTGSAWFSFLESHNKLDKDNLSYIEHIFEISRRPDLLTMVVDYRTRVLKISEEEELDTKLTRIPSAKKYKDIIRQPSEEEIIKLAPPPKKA
UniProt Q9CQE7: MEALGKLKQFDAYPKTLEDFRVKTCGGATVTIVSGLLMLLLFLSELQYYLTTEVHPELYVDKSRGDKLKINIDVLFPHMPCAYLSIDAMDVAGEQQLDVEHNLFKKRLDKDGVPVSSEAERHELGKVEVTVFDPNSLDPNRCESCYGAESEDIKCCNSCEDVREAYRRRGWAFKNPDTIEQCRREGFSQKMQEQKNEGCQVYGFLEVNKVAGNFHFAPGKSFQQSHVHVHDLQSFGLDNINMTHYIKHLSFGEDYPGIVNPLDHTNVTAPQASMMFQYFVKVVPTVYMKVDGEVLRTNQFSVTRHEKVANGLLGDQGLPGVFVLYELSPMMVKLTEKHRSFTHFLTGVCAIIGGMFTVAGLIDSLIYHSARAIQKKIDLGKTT
UniProt A2AF53: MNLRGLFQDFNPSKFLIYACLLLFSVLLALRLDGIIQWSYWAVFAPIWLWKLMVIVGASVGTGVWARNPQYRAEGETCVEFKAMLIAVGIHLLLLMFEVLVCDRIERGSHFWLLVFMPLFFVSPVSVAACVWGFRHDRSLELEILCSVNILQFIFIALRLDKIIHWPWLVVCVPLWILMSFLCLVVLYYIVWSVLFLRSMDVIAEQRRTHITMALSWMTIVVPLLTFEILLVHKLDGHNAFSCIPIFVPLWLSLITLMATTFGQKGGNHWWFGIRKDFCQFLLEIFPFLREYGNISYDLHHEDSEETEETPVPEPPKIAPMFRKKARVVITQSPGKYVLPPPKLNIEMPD

Key:
[1] = target: TRPML1-Cub-LexA-VP16 (mouse) (UniProt Q99J21); experiment: two-hybrid; split-ubiquitin yeast two-hybrid, directed test: TRPML1-Cub-LexA-VP16 with NubG or NubI fusions in NMY51; growth on SD -leu -trp -ade -his +1 mM 3-AT at 30 C, scored over four days
[2] = target: TRPML1-Cub-LexA-VP16 (mouse) (UniProt Q99J21); experiment: two-hybrid; split-ubiquitin yeast two-hybrid library screens: TRPML1-Cub-LexA-VP16 against mouse heart X-NubG and mouse NubG-X cDNA libraries; SD -leu -trp -ade -his +1-5 mM 3-AT; hits confirmed by retransformation
[3] = target: GFP-TRPML1 (murine), expressed in HeLa cells (mouse) (UniProt Q99J21); experiment: co-IP; HeLa cells co-transfected with GFP or GFP-TRPML1 and a V5-fused candidate; anti-GFP beads, anti-V5 Western; absence of Ca2+; strength graded by film exposure time
[4] = target: GFP-TRPML1 (murine), expressed in HeLa cells (mouse) (UniProt Q99J21); experiment: as above; remark: listed apart in the source
[5] = target: GFP-TRPML1 (mouse), stably expressed in RAW264.7 macrophages (mouse) (UniProt Q99J21); experiment: co-IP; anti-GFP beads on lysates of RAW264.7 clones stably expressing GFP-TRPML1 or Derlin-1-GFP; Western for endogenous proteins; absence of Ca2+
Derlin-1-GFP = target: T1, Derlin-1-GFP (UniProt Q99J56); experiment: as above
T1 sequence: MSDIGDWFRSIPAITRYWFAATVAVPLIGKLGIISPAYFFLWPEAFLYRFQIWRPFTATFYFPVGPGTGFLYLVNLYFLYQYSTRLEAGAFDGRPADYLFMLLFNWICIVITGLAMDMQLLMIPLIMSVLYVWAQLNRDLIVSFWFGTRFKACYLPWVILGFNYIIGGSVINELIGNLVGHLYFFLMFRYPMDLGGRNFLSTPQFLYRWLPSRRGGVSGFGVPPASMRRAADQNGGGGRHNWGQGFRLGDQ

Molecule: NubG-Cdc42 (from UniProt P60766 1-191)
binding [1]: binds

Molecule: P5KT1(BAA13031), truncated form of the first 366 amino acids, library clone of the SU-YTH screen (from UniProt P70182 1-366) (domain or fragment)
binding [2]: binds

Molecule: NubG-RhoG (from UniProt P84096 1-191)
binding [1]: no binding

Molecule: V5-Cdc42 (from UniProt P60766 1-191)
binding [3]: binds weakly

Molecule: V5-P5KT1(BAA13031) (from UniProt P70182 1-546)
binding [3]: no binding

Molecule: V5-PEA-15 (from UniProt Q62048 1-130)
binding [3]: no binding

Molecule: V5-RhoG (from UniProt P84096 1-191)
binding [3]: no binding

Molecule: V5-ERGIC (from UniProt Q9CQE7 1-383)
binding [3]: binds

B1: NubG-BAE30441 (protein, UniProt Q91VC9 1-346)
chain: MLAARLVCLRTLPSRVFQPTFITKASPLVKNSITKNQWLVTPSREYATKTRIRTHRGKTGQELKEAALEPSMEKIFKIDQMGRWFVAGGAAVGLGALCYYGLGMSNEIGAIEKAVIWPQYVKDRIHSTYMYLAGSIGLTALSALAVARTPALMNFMMTGSWVTIGATFAAMIGAGMLVHSISYEQSPGPKHLAWMLHSGVMGAVVAPLTILGGPLLLRAAWYTAGIVGGLSTVAMCAPSEKFLNMGAPLGVGLGLVFASSLGSMFLPPTSVAGATLYSVAMYGGLVLFSMFLLYDTQKVIKRAEITPMYGAQKYDPINSMLTIYMDTLNIFMRVATMLATGSNRKK
binding [1]: binds

B2: V5-BAE30441 (protein, UniProt Q91VC9 46-346)
chain: YATKTRIRTHRGKTGQELKEAALEPSMEKIFKIDQMGRWFVAGGAAVGLGALCYYGLGMSNEIGAIEKAVIWPQYVKDRIHSTYMYLAGSIGLTALSALAVARTPALMNFMMTGSWVTIGATFAAMIGAGMLVHSISYEQSPGPKHLAWMLHSGVMGAVVAPLTILGGPLLLRAAWYTAGIVGGLSTVAMCAPSEKFLNMGAPLGVGLGLVFASSLGSMFLPPTSVAGATLYSVAMYGGLVLFSMFLLYDTQKVIKRAEITPMYGAQKYDPINSMLTIYMDTLNIFMRVATMLATGSNRKK
binding [4]: no binding

B4: V5-STOML1 (protein, UniProt Q8CI66 1-399)
chain: MLGRSGYRALPLGDFDRFQQSSFGFLGSQKGCLSPEPGSVGPGADAPESWPSCLCHGLVSVLGFLLLLLTFPISGWFALKIVPTYERMIVFRLGRIRNPQGPGMVLLLPFIDSFQRVDLRTRAFNVPPCKLASKDGAVLSVGADVQFRIWDPVLSVMAVKDLNTATRMTAHNAMTKALLRRPLQEIQMEKLKIGDQLLLEINDVTRAWGLEVDRVELAVEAVLQPPQDSLTVPSLDSTLQQLALHLLGGSMNSAVGRVPSPGPDTLEMINEVEPPASLAGAGAEPSPKQPVAEGLLTALQPFLSEALVSQVGACYQFNVILPSGTQSIYFLDLTTGQGRVGHGEPDGIPDVVVEMAEADLQALLSKELRPLGAYMSGRLKVKGDLAVVMKLEAVLKALK
binding [4]: binds

B6: Sorting Nexin 2 (protein, UniProt Q9CWK8 1-519)
chain: MAAEREPPPLGDVKPTDFEELEDGEDLFTSTVSTLESSPSSPEPASLPAEDISANSNGSKPVEVVLDDDREDLFAEATEEVSLDSPERELILSSEPSPAVTPVTPTTLIAPRIESKSISAPVIFDRSRDEIEEEANGDIFDIEIGVSDPEKVGDGMNAYMAYRVTTKTSLSMFSKSEFSVKRRFSDFLGLHSKLASKYLHVGYIVPPAPEKSIVGMTKVKVGKEDSSSTEFVEKRRAALERYLQRTVKHPTLLQDPDLRQFLESSELPRAVNTQALSGAGILRMVNKAADAVNKMTIKMNESDAWFEEKQQQFENLDQQLRKLHASVEALVCHRKELSANTAAFAKSAAMLGNSEDHTALSRALSQLAEVEEKIDQLHQEQAFADFYMFSELLSDYIRLIAAVKGVFDHRMKCWQKWEDAQITLLKKRETEAKMMVANKPDKIQQAKNEIREWEAKVQQGERDFEQISKTIRKEVGRFEKERVKDFKAVIIKYLESLVQTQQQLIKYWEAFLPEAKAIA
binding (Derlin-1-GFP): binds

More lines, now with the values ahead:

binding [3]: binds
Molecule: V5-NP9 (from UniProt A2AF53 1-350)

binding [1]: binds
Molecule: NubG-NP9 (from UniProt A2AF53 1-350)

binding [1]: binds
Molecule: NubG-ERGIC (from UniProt Q9CQE7 1-383)

binding [5]: no binding | binding (Derlin-1-GFP): no binding
B3: Destrin (protein, UniProt Q9R0P5 1-165)
chain: MASGVQVADEVCRIFYDMKVRKCSTPEEIKKRKKAVIFCLSADKKCIVVEEGKEILVGDVGATITDPFKHFVGMLPEKDCRYALYDASFETKESRKEELMFFLWAPEQAPLKSKMIYASSKDAIKKKFPGIKHEYQANGPEDLNRTCIAEKLGGSLIVAFEGSPV

binding [5]: binds
B5: endogenous mouse STOML1 (protein, UniProt Q8CI66 1-399)
chain: MLGRSGYRALPLGDFDRFQQSSFGFLGSQKGCLSPEPGSVGPGADAPESWPSCLCHGLVSVLGFLLLLLTFPISGWFALKIVPTYERMIVFRLGRIRNPQGPGMVLLLPFIDSFQRVDLRTRAFNVPPCKLASKDGAVLSVGADVQFRIWDPVLSVMAVKDLNTATRMTAHNAMTKALLRRPLQEIQMEKLKIGDQLLLEINDVTRAWGLEVDRVELAVEAVLQPPQDSLTVPSLDSTLQQLALHLLGGSMNSAVGRVPSPGPDTLEMINEVEPPASLAGAGAEPSPKQPVAEGLLTALQPFLSEALVSQVGACYQFNVILPSGTQSIYFLDLTTGQGRVGHGEPDGIPDVVVEMAEADLQALLSKELRPLGAYMSGRLKVKGDLAVVMKLEAVLKALK
